Results on 56 variants are retold here after the RNAGym collection of RNA variant scans (doi:10.7554/elife.90254).

Read counts are not given, so values of variants with three or more changes are uncertain.

First the molecules themselves.
B1: LINE1-mini (parent)
chain: GGCAGAGCUCAACACAGCGUGGCAAAGUGGCUGUGGCUAGACUGCC

This data set covers variants of B1. Put plainly: self-cleavage, relative activity (ratio to wild type); higher = more cleavage; in vitro, sequencing; the parent is a self-cleaving ribozyme.
In the case of GGCAGAGCGCAACACAGCGUGGCAAAGUGACUAUGGGUAGACUGCU [U9G G30A G33A C37G C46U], the self-cleavage stood at 0.01.
In the case of GGCAGAGCGCAACACAGCGUGGCAAAGUGGCUGUGGCAAGAGUGCC [U9G U38A C42G], the self-cleavage stood at 0.04.
With GGCAGAGCGCAAUACAGCGUGGCAAAGUGGCUGUGGUAAGACUGCC [U9G C13U C37U U38A], the self-cleavage is 0.05.
Then GGCAGAGCGCAACACAGCGUGGUAAAGUCGCUGGGGCUAGACUGCC [U9G C23U G29C U34G], with 0.08.
For the variant GGCAGAGCGCAACACAGCGUGGCAAAGUGGCUGGGGCUAGACUGUC [U9G U34G C45U], the self-cleavage was 0.05.
Then GGCAGAGCUAUGCACAGCGUGGCAAAGUGGCUGUGGAUAGACUGCC [C10A A11U A12G C37A], with 0.01; and GGCAGAGCGCAACACAGCGUGGCAAAGUGGCCGAGGUUAGACUGCC [U9G U32C U34A C37U], with 0.02.
Then GGCAGAGCUACACACAGCUUGGCAAAGUGGCUGUGGCUAGACUGCC [C10A A11C G19U], with 0.01; and GGCAGAGCUAUACACAGCGUGACAAAGUGGCUCUGGCUAGACUGAC [C10A A11U G22A G33C C45A], with 0.01; and GGCAGAGCGCAACACAACGUGGCAAAGUGGCUCUGGCUAGACUGCC [U9G G17A G33C], with 0.02.
In the case of GGCAGAGCGCAACACAGCGUGGCAAGUUGGCUGUGGCUAGACUGCC [U9G A26G G27U] it was 0.04; in that of GGCAGAGCGCAACACAGCGUGGGAAAGUGGCUGUGUCUAGACUGCG [U9G C23G G36U C46G], 0.09.
As to GGCAGAGCUAGACACAGCGUGGCAAAGUGGCUGUGGCUAGACUCCC [C10A A11G G44C], the self-cleavage was 0.02.
In the case of GGCAGAGCGCAACACAGUGUGGCAGAGUGGCUGUGGAUAGACUGCC [U9G C18U A25G C37A] it was 0.15; in that of GGCAGAGCGCAAAACAGCGUGGCAAAGUGGCUGUGGCUAGACUGUC [U9G C13A C45U], 0.01; in that of GGCAGAGCGCAAAACAGCGUGGCAAAGUGGCUGUGGCUAGUCUGCC [U9G C13A A41U], 0.05.
In the case of GGCAGAGCUAGACACAGCGUGGCAAAGUGACUGUGGCUAGACUGCG [C10A A11G G30A C46G] it was 0.02.
Take GGCAGAGCGCAACAGAGCGUGGCAGAGGGGCUGUUGCUAGACUGCC [U9G C15G A25G U28G G35U]: the self-cleavage came out at 0.01.
For GGCAGAGCGCAACACAGUGUGGUAAAGUGGCUGUGGCUAAACUGCC [U9G C18U C23U G40A], the self-cleavage stood at 0.02.
As for GGCAGAGCGCAACACAGCGUGUCAAAGUGGCUGUGGCUAGACUGCU [U9G G22U C46U], the self-cleavage was found to be 0.13.
With GGCAGAGCGCAACACAGCGUUGCAAAGUGGCUGUGGCUAGACUUCC [U9G G21U G44U], the self-cleavage amounted to 0.01.
In the case of GGCAGAGCGCAACACAUCGUCGCAAAGUGGCUGUUGCUGUACUGCC [U9G G17U G21C G35U A39G G40U] it was 0.
Take GGCAGAGCGCAACACAGUGUUGCAAAGUGGCUCUUGCUAGACUGCC [U9G C18U G21U G33C G35U]: the self-cleavage came out at 0.03.
In the case of GGCAGAGCGCAACACAGCGUGGCAAGGUGGCUGUGGCUAGACUGAC [U9G A26G C45A], the self-cleavage is 0.05.
In the case of GGCAGAGCGCAACAUAGCGUGGCAAAGUGGCUGCGGCUAGACUGCC [U9G C15U U34C] it was 0.01; in that of GGCAGAGCGCAACACAGCGUGGCAAGGUGGCUGUAACUAGACUUCC [U9G A26G G35A G36A G44U], 0.01; in that of GGCAGAGCGCAACAUAGCGUGGCGAAGGGGCUGUGUCUAGACUGCC [U9G C15U A24G U28G G36U], 0.15.
For the variant GGCAGAGCGCAACACAGCGUGGUAAAGUGGCUGUGGCUAGAUUGCC [U9G C23U C42U], the self-cleavage came to 0.07.
In the case of GGCAGAGCUACACAAAGCGUGGCAAAGUGGCUGUGACUAGACUGCC [C10A A11C C15A G36A] it was 0.06.
Then GGCAGAGCUAUACACAGCGUGGCAAAGUGCAUUUGGCUAGACUGCC [C10A A11U G30C C31A G33U], with 0.02.
Take GGCAGAGCUAUACAAAGCGUGGCAAAGUGGCUGUGGCUAGACUGAC [C10A A11U C15A C45A]: the self-cleavage turned out to be 0.
For the variant GGCAGAGCGCAACACAGCGUUGCAAUGUGGCUGUGGCUAUACUGCC [U9G G21U A26U G40U], the self-cleavage amounted to 0.03.
GGCAGAGCGCAACACAGCGUGGCAAAGGGGCUGUGGCUAUACUGCC [U9G U28G G40U]: the self-cleavage stood at 0.04.
Then GGCAGAGCGCAACAUAGCGGGGCAAAGUGGCUGUGGCUAUACUGCC [U9G C15U U20G G40U], with 0.36; and GGCAGAGCGCAACACAGCGUGGCAAAGUAGCUUUGGCUAGACUGCC [U9G G29A G33U], with 0.07; and GGCAGAGCGCAACACAGCGUGGCAAAGUGGCUGCCACAAGACUGCC [U9G U34C G35C G36A U38A], with 0.02.
In the case of GGCAGAGCGCAACACAGCGCGGCAAAGUGGCUGUGGCUAGUCUGGC [U9G U20C A41U C45G] it was 0.05.
Then GGCAGAGCUAGACACAGCUUGGCAAAGUGGCUGUGGCUAGACUGCC [C10A A11G G19U], with 0.01; and GGCAGAGCGCAACACAGCGUGGAAAAGUGGCUGUGGCUAGACUGCG [U9G C23A C46G], with 0.04; and GGCAGAGCUAGACACCGCCUGGCAAAGUGGCUAUAGCUAGCCUGCC [C10A A11G A16C G19C G33A G35A A41C], with 0.
For GGCAGAGCUAGUCAUAGCGUGGCAAAGUAGCUGUGGCUAGUCUGCC [C10A A11G A12U C15U G29A A41U], the self-cleavage came to 0.01.
With GGCAGAGCGCAACACAACGUGGCAAAUUGGCUGUGGCUAGACUGCC [U9G G17A G27U], the self-cleavage came out at 0.12.
In the case of GGCAGAGCGCAACACAGCGUGGCAAGGUGGCUGUGCCUAGACUGCC [U9G A26G G36C] it was 0.02; in that of GGCAGAGCGCAACACAGCGUGGCAAAUAGGCUGUGGCUAGACUGCC [U9G G27U U28A], 0.13.
Turning to GGCAGAGCGCAACACAGCGUGGCAAAUUGGCUGUGGUUAGACUGCC [U9G G27U C37U], the self-cleavage stood at 0.06.
Then GGCAGAGCGCAACACAGCGGGGCAAAAUAGCUGUCGCUAGACUGCC [U9G U20G G27A G29A G35C], with 0.07; and GGCAGAGCGCAACACAGCGUGGCAAAGUGGCUGUGUCUAGACUGAC [U9G G36U C45A], with 0.52; and GGCAGAGCGCAACACAGCGUGGGAAAGGGGCUGGGGCUAGACUGCC [U9G C23G U28G U34G], with 0.02.
Then GGCAGAGCUACACACAGCGUGGCAAAGUGUCUGUUGCUAGGCUGCG [C10A A11C G30U G35U A41G C46G], with 0.03; and GGCAGAGCGCAACACAUCGCGUCAAAGUGGUUGUGGCUAGACUGCC [U9G G17U U20C G22U C31U], with 0.04.
Then GGCAGAGCUACACACACCGAGGCAAAGUGGCUGUGGCAAGGCUCCC [C10A A11C G17C U20A U38A A41G G44C], with 0.
Regarding GGCAGAGCGCAACACAGCGUGGCAAAGUUGCUGUGGUUAGACUGCC [U9G G29U C37U], the self-cleavage is 0.06.
On to GGCAGAGCGCAACACAGGGAGGCAAAUUGGCUGUGGCUAGACUGCC [U9G C18G U20A G27U], for which the self-cleavage came out at 0.06.
On to GGCAGAGCUACUCACAGCGUGGCAAAGUGGCUGUGGCUAGACUGCC [C10A A11C A12U], for which the self-cleavage stood at 0.02.
Then GGCAGAGCGCAACAAAGCGUGGCAAAGUGGCUCUGGCUAGACUGGC [U9G C15A G33C C45G], with 0.01; and GGCAGAGCUACACACAGCGUGGCAAAGUGGGGGUGGCUAGACUGCC [C10A A11C C31G U32G], with 0.03.
